Test results taken from the supplement of paper PMC9446081.
In all, about 39,000 compounds went through this assay and about 220 (0.56%) showed activity. The list shows a part of the results.
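Further: static incubation at 37 °C against the wild-type strain, values averaged over two biological replicates.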

The compounds below were run on Escherichia coli K-12 BW25113 (assay: relative growth (OD600 normalised to plate interquartile mean) (fraction); higher = less growth inhibition, active = 0.2 or less). Settings: 50 µM; LB; incubation time: overnight (16-24 h).
For `C[C@@H]1CN([C@@H](C)CO)C(=O)c2cc(C#Cc3cccnc3)cnc2O[C@H]1CN(C)Cc1ccc(F)cc1`, the relative growth was inactive: 1. `COCCNCc1ccc(-c2cc3nccc(Oc4ccc(NC(=S)NC(=O)Cc5ccc(F)cc5)cc4F)c3s2)nc1` was tested, and the relative growth was inactive: 1. `C[C@@H]1CCCCO[C@H](CN(C)S(=O)(=O)c2cn(C)cn2)[C@@H](C)CN([C@H](C)CO)C(=O)c2cc(NS(C)(=O)=O)ccc2O1` was tested, and the relative growth was inactive: 1. With `CC(C)NC(=O)Nc1ccc2c(c1)C(=O)N([C@@H](C)CO)C[C@@H](C)[C@H](CN(C)S(=O)(=O)c1ccccc1)O2` the relative growth was inactive: 1. For `C[C@H]1CCCCO[C@H](CN(C)Cc2ccncc2)[C@@H](C)CN([C@@H](C)CO)C(=O)c2cc(NC(=O)Cc3ccccc3)ccc2O1`, the relative growth was inactive: 1.04. For `Oc1ccc(OCc2ccccc2)cc1`, the relative growth was inactive: 0.946. For `COc1ccc(CN(C)C[C@@H]2OCCCC[C@H](C)Oc3ccc(NS(=O)(=O)c4ccc(Cl)cc4)cc3C(=O)N([C@H](C)CO)C[C@H]2C)cc1`, the relative growth was inactive: 0.984. With `C[C@H](CO)N1C[C@H](C)[C@H](CN(C)C(=O)c2ccncc2)OCCCC[C@H](C)Oc2ccc(NS(C)(=O)=O)cc2C1=O` the relative growth was inactive: 1.02. In the case of `CCNC(=S)N1CCOCC1`, the relative growth is reported as inactive: 1.05. For `C[C@H]1CCCCO[C@@H](CN(C)Cc2ccc(C(F)(F)F)cc2)[C@@H](C)CN([C@@H](C)CO)C(=O)c2cc(NS(=O)(=O)c3ccccc3)ccc2O1`, the relative growth was inactive: 1.01. For `C[C@H]1O[C@@H](O[C@@H]2[C@@H](OC(=O)/C=C/c3ccc(O)c(O)c3)[C@H](CO)O[C@H](OCCc3ccc(O)c(O)c3)[C@@H]2O[C@H]2OC[C@@H](O)[C@@H](O)[C@@H]2O)[C@@H](O)[C@@H](O)[C@@H]1O`, the relative growth was inactive: 0.986. With `C[C@@H]1CCCCO[C@@H](CN(C)CC2CCCCC2)[C@H](C)CN([C@@H](C)CO)C(=O)c2cc(NS(=O)(=O)c3ccc(F)cc3)ccc2O1` the relative growth was inactive: 0.976. With `CC(=O)/C=C/c1ccc(-c2ccc([C@H]3CC(=O)C[C@@H](c4ccccc4)C34C(=O)c3ccccc3C4=O)cc2)cc1` the relative growth was inactive: 1.05. In the case of `C[C@H](CO)N1C[C@H](C)[C@@H](CN(C)S(C)(=O)=O)Oc2ccc(NC(=O)Nc3ccccc3)cc2C1=O`, the relative growth is reported as inactive: 0.998. With `C[C@H]1CN([C@@H](C)CO)C(=O)c2cc(C#CC3(O)CCCC3)cnc2O[C@H]1CN(C)C(=O)Nc1ccc2c(c1)OCO2` the relative growth was inactive: 0.972. With `C[C@@H]1CCCCO[C@@H](CN(C)S(=O)(=O)c2cccs2)[C@@H](C)CN([C@@H](C)CO)C(=O)c2cc(NS(C)(=O)=O)ccc2O1` the relative growth was inactive: 1.02. For `C[C@@H]1CCCCO[C@@H](CN(C)Cc2ccc(Cl)c(Cl)c2)[C@@H](C)CN([C@H](C)CO)C(=O)c2cc(NS(=O)(=O)c3ccc(Cl)cc3)ccc2O1`, the relative growth was inactive: 1.01. In the case of `C[C@@H]1CCCCO[C@H](CN(C)C(=O)Cc2ccccc2)[C@@H](C)CN([C@H](C)CO)C(=O)c2cc(NC(=O)NC3CCCCC3)ccc2O1`, the relative growth is reported as inactive: 1.01. With `COC[C@]1(O)CCN(C(=O)CCN(C)S(C)(=O)=O)CC1(C)C` the relative growth was inactive: 1. In the case of `C[C@@H]1CN([C@@H](C)CO)C(=O)c2cc(NS(=O)(=O)c3ccccc3)ccc2O[C@@H](C)CCCCO[C@H]1CN(C)Cc1ccc(C(=O)O)cc1`, the relative growth is reported as inactive: 0.996. `CC(C)NC(=O)N(C)C[C@H]1OCCCC[C@@H](C)Oc2ccc(NC(=O)Nc3cccc4ccccc34)cc2C(=O)N([C@@H](C)CO)C[C@H]1C` was tested, and the relative growth was inactive: 0.997. With `COCC(=O)Nc1ccc2c(c1)C(=O)N(C)[C@@H]1CC[C@@H](CC(=O)NCc3ccc(OC)cc3)O[C@@H]1CO2` the relative growth was inactive: 0.995. With `C=C1C[C@@H]2CC[C@@]34C[C@H]5O[C@H]6[C@@H](O3)[C@H]3O[C@H](CC[C@@H]3O[C@H]6[C@H]5O4)CC(=O)C[C@@H]3[C@@H](OC)[C@@H](C[C@H](O)CN)O[C@H]3C[C@H]3O[C@@H](CC[C@@H]1O2)C[C@@H](C)C3=C` the relative growth was inactive: 1.03. With `Cn1cccc1CNCCCN1CCOCC1` the relative growth was inactive: 1. With `C[C@@H]1CN([C@H](C)CO)C(=O)CCCn2cc(nn2)CO[C@H]1CN(C)Cc1cccc2c1OCCCO2` the relative growth was inactive: 0.992. In the case of `C[C@H]1CN([C@@H](C)CO)C(=O)c2cc(NC(=O)Cc3cn(C)c4ccccc34)ccc2O[C@@H]1CN(C)C(=O)Nc1cccc2ccccc12`, the relative growth is reported as inactive: 1.03. For `CCCNC(=O)N(C)C[C@H]1Oc2cc(C#Cc3cccc(F)c3)ccc2S(=O)(=O)N([C@H](C)CO)C[C@H]1C`, the relative growth was inactive: 0.979. In the case of `COc1ccc2c3c([nH]c2c1)[C@@H](CO)N(CC1CCOCC1)C[C@]13CCN(CC1)C(=O)C1CCOCC1`, the relative growth is reported as inactive: 1.02. For `Cc1noc(C)c1NC(=O)N(C)C[C@H]1OCCCC[C@H](C)Oc2ccc(NC(=O)c3ccccc3)cc2C(=O)N([C@@H](C)CO)C[C@@H]1C`, the relative growth was inactive: 1.01. For `COCC(=O)N(C)C[C@H]1Oc2cc(C#CCC3CCCC3)ccc2S(=O)(=O)N([C@@H](C)CO)C[C@H]1C`, the relative growth was inactive: 1.03. With `CO[C@@H]1CN(C)C(=O)c2ccc(NC(=O)C3CC3)cc2OC[C@H](C)N(C(=O)Cc2ccccn2)C[C@@H]1C` the relative growth was inactive: 0.988. `C[C@H]1CN([C@@H](C)CO)S(=O)(=O)c2ccc(-c3ccccc3F)cc2O[C@@H]1CN(C)Cc1cncnc1` was tested, and the relative growth was inactive: 1. With `COc1ccc(NC(=O)Nc2ccc3c(c2)CC(=O)N([C@@H](C)CO)C[C@@H](C)[C@@H](CN(C)C(=O)Nc2cccc4ccccc24)O3)cc1` the relative growth was inactive: 0.972. For `C[C@H]1CCCCO[C@@H](CN(C)C(=O)c2ccccc2)[C@@H](C)CN([C@@H](C)CO)C(=O)c2cc(NC(=O)CCC(F)(F)F)ccc2O1`, the relative growth was inactive: 0.996. `O=C([C@H]1[C@H](CO)[C@H]2Cn3c(cccc3=O)[C@@H]1N2S(=O)(=O)c1ccccc1F)N1CCOCC1` was tested, and the relative growth was inactive: 1.02. `CS(=O)(=O)CCOC(=O)C1=CC(c2ccc(CO)cc2)=C[C@@H](C2CC2)N(Cc2cc3c(cc2Br)OCO3)C=C1C(=O)OCCS(C)(=O)=O` was tested, and the relative growth was inactive: 1.03. With `C[C@@H]1CN([C@@H](C)CO)C(=O)c2cccc(NC(=O)Nc3ccc(F)cc3)c2O[C@H]1CN(C)C(=O)Nc1cccc2ccccc12` the relative growth was inactive: 1.02. `C[C@@H]1CCCCO[C@H](CN(C)C(=O)C2CCCCC2)[C@H](C)CN([C@@H](C)CO)C(=O)c2cc(NC(=O)CCCCCC(=O)Nc3ccccc3N)ccc2O1` was tested, and the relative growth was inactive: 0.962. `C[C@H](CO)N1C[C@H](C)[C@H](CN(C)C(=O)Nc2ccc3c(c2)OCO3)Oc2ccc(NC(=O)Cn3cnnn3)cc2CC1=O` was tested, and the relative growth was inactive: 1.01. In the case of `O=C(NCCO)c1cc2ccccc2c(=O)s1`, the relative growth is reported as inactive: 0.975. In the case of `O=C1/C(=C/c2cccs2)CCC/C1=C\c1cccs1`, the relative growth is reported as inactive: 0.963. `C[C@@H]1CN([C@@H](C)CO)C(=O)c2cccc(NC(=O)Nc3ccc4c(c3)OCO4)c2O[C@@H]1CN(C)Cc1ccc(-c2ccccc2)cc1` was tested, and the relative growth was inactive: 1.02. With `CN1CCN(C(=O)C[C@@H]2CC[C@@H]3[C@H](COc4ccc(NC(=O)C5CCCCC5)cc4C(=O)N3C)O2)CC1` the relative growth was inactive: 1.02. `CNc1nc(N2CCCC2)nc(N)c1[N+](=O)[O-]` was tested, and the relative growth was inactive: 0.994. With `Cc1ccc(S(=O)(=O)N(C)C[C@H]2Oc3ccc(NC(=O)CCN4CCOCC4)cc3CC(=O)N([C@H](C)CO)C[C@H]2C)cc1` the relative growth was inactive: 1.01. For `C[C@@H]1CN([C@H](C)CO)C(=O)c2cc(NS(=O)(=O)c3ccc(F)cc3)ccc2O[C@@H](C)CCCCO[C@H]1CN(C)C(=O)C1CCCCC1`, the relative growth was inactive: 0.988. In the case of `C[C@@H]1CN([C@@H](C)CO)C(=O)c2cccc(NS(=O)(=O)c3ccccc3)c2O[C@@H]1CN(C)S(=O)(=O)c1ccccc1`, the relative growth is reported as inactive: 1. `C[C@H]1CN([C@@H](C)CO)C(=O)Cc2cc(NS(=O)(=O)c3ccccc3)ccc2O[C@@H]1CN(C)S(C)(=O)=O` was tested, and the relative growth was inactive: 0.961. `O=S1(=O)CCCCN1` was tested, and the relative growth was inactive: 1.06. With `C[C@H]1CN([C@@H](C)CO)S(=O)(=O)c2ccc(C#CC3(O)CCCC3)cc2O[C@H]1CN(C)C(=O)Nc1ccccc1` the relative growth was inactive: 1.02. For `COc1ccc(S(=O)(=O)N(C)C[C@H]2OCCCC[C@H](C)Oc3ccc(NC(=O)c4ccccc4)cc3C(=O)N([C@H](C)CO)C[C@H]2C)cc1`, the relative growth was inactive: 1.03. `C[C@H](CO)N1C[C@H](C)[C@H](CN(C)C(=O)Nc2ccc3c(c2)OCO3)Oc2ccc(NC(=O)Cn3cnnn3)cc2C1=O` was tested, and the relative growth was inactive: 0.982. With `CN1C(=O)c2cc(NC(=O)c3ccc(F)c(F)c3)ccc2OC[C@@H]2O[C@H](CC(=O)N3CCOCC3)CC[C@H]21` the relative growth was inactive: 1.02. `COc1cccc(C#Cc2cnc3c(c2)C(=O)N([C@H](C)CO)C[C@H](C)[C@H](CN(C)C(=O)C2CCOCC2)O3)c1` was tested, and the relative growth was inactive: 0.976. With `Cc1noc(C)c1S(=O)(=O)Nc1ccc2c(c1)CC(=O)N([C@H](C)CO)C[C@H](C)[C@@H](CN(C)S(=O)(=O)c1c(C)noc1C)O2` the relative growth was inactive: 1.01. `C[C@H]1CCCCO[C@H](CN(C)S(=O)(=O)c2cccs2)[C@@H](C)CN([C@@H](C)CO)C(=O)c2cc(NC(=O)c3ccccc3)ccc2O1` was tested, and the relative growth was inactive: 1.04. With `CN(C)C(=O)c1ccc(-c2cccc(-c3nc(C(=O)NC4CCCCC4)cc4c3[C@H](CCO)N([S@@](=O)C(C)(C)C)C4)c2)cc1` the relative growth was inactive: 0.981. For `CCC1=C(C)CN(C(=O)NCCc2ccc(S(=O)(=O)NC(=O)NC3CCC(C)CC3)cc2)C1=O` (stereo not drawn), the relative growth was inactive: 0.983.
